# Data as given in PubChem BioAssay AID488969 (Vanderbilt High Throughput Screening Facility, 2010).
# In all, about 110,000 compounds were measured (“z-score”: median about -0.1, highest 2% from about 2 on). Some of the results follow. The source made the active and inactive calls.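 The calls were made as follows: active = z-score in the third read window above 3 or below -3; inactive = the rest.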
# Target: Metabotropic glutamate receptor 8 (Rattus norvegicus) (UniProt P70579)
# Assay: rat mGluR8 modulators via GIRK flux, primary screen, cell-based, thallium flux, HTS (AID 488969)
# Settings: HEK293 rat mGluR8, GIRK (G protein-gated inwardly rectifying potassium channel) thallium flux, FluoZin2; at 10 µM; stronger effect = higher value; submaximal glutamate (EC20) added with thallium
# UniProt P70579, sequence (P70579 whole entry, looked up): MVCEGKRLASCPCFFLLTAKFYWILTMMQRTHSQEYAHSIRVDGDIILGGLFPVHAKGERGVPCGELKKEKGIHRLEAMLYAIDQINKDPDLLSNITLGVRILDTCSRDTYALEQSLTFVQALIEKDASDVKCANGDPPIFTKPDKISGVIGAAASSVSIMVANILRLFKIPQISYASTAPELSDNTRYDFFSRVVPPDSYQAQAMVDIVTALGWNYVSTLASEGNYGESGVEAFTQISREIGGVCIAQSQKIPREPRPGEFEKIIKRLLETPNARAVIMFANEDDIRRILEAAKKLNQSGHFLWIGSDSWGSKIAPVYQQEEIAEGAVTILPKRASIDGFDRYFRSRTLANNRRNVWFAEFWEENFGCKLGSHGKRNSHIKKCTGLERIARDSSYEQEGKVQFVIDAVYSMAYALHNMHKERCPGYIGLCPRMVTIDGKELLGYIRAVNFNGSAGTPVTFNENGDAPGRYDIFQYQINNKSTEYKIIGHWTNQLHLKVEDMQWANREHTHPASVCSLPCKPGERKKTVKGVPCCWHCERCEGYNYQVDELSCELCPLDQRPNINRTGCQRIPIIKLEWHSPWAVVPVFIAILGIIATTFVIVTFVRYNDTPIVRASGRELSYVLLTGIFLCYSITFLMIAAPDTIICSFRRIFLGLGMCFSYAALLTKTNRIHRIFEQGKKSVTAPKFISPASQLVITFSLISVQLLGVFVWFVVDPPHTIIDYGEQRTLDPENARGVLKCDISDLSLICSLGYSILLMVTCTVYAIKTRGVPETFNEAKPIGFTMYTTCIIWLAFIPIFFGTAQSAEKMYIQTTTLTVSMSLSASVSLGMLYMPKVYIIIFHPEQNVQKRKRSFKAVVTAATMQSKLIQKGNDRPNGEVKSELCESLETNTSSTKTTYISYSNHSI
row,SMILES,z-score
1,COC(=O)c1cc2cc(NS(=O)(=O)c3ccc(C)cc3)ccc2s1,0.00805
2,Cc1cccc(C)c1NC(=O)CC(NCc1ccco1)C(=O)O (stereo unspecified),0.32
3,CC(c1ccccc1)n1c(-c2ccncc2)n[nH]c1=S (stereo unspecified),0.000563
4,Cn1c(=O)[nH]c2cc3ccccc3cc21,-0.182
5,O=C(/C=C/c1ccccc1)N1CCC(c2ccccc2)C1 (stereo unspecified),-0.0939
6,O=C(Nc1ccccc1)O/N=C/c1ccncc1,-0.107
7,Cc1cc(NC(=O)CSc2cc(Cl)ccc2Cl)n(-c2ccccc2)n1,1.94
8,Cc1ccc(NC(=O)CSc2nnnn2-c2ccc3c(c2)OCO3)cc1C,-0.16
9,N#Cc1ccc(/C=N/N=C(N)N)cc1,-0.322
10,CCNc1nc(NC(C)C)nc(Nn2cnnc2)n1,-0.0436
11,C(=N\n1cnnc1)/c1ccccn1,-0.0685
12,CCOC(=O)Cc1csc(NC(=O)c2cccc(OC)c2)n1,0.0443
13,CN(C)C(=O)c1ccc(-n2nc(C(F)(F)F)c3c2CCCC3)cc1,-0.213
14,Nc1nonc1-c1noc(-c2ccccc2Br)n1,-0.341
15,c1ccc(-c2nnc(-c3cccc(-c4nnc(-c5ccccc5)o4)c3)o2)cc1,-0.336
16,CCC(C)N(NC(C)=O)c1nc(Cl)nc(NC(C)(C)C)n1 (stereo unspecified),-0.173
17,CC1CN(C(=O)c2ccc3c(c2)OCO3)OC(c2ccccc2)O1 (stereo unspecified),-0.0491
18,O=C(N/N=C/c1ccco1)c1cc(C2CC2)nc2ccccc12,-0.165
19,FCCCOc1ccc(-c2ccnc(-c3ccccc3)n2)cc1,-0.771
20,Cc1nn(C)c(C)c1NC(=O)CSc1nc(-c2ccccc2Cl)nc2c1cnn2-c1ccccc1,1.21
21,COc1ccccc1Nc1cc(C(=O)NCCCN2CCOCC2)c2ccccc2n1,1.29
22,O=C(O)c1cc(-c2ccccn2)n[nH]1,0.643
23,CN(c1ccccc1)S(=O)(=O)c1cc(C(=O)Nc2nc3ccccc3[nH]2)ccc1Cl,-0.104

row,SMILES,z-score
1,CC1=N/C(=C\c2ccc([N+](=O)[O-])cc2)C(=O)N1c1ccc(Cl)cc1,-0.292
2,O=C(NC(=S)Nc1nc(-c2ccccc2)cs1)c1cncc(Br)c1,0.252
3,O=C1CC(C(=O)Nc2ccc(O)c(C(=O)O)c2)C(c2ccccc2)O1 (stereo unspecified),-0.066
4,CCOC(=O)c1cnn2c(C)cc(-c3ccc(F)cc3)nc12,-0.151
5,O=C(CSc1nnnn1-c1ccccc1)Nc1ncc2c(n1)CC(c1ccccc1)CC2=O (stereo unspecified),0.798
6,Cc1cc(C)cc(C(=O)N2CCN=C2c2ccccc2)c1,-0.228
7,CC1(C)Cc2c(sc3nnn(Cc4ccccc4)c(=O)c23)CO1,-0.402
8,CCOC(=O)c1c(COc2ccccc2)oc2ccc(O)cc12,0.0491
9,O=S(=O)(c1ccc(Br)s1)N1CCCCC1,-0.213
10,O=C(CSCc1ccccc1)NNC(=S)Nc1cccc(Cl)c1Cl,0.701
11,COc1ccc(NC(=O)C23CCC(C)(C(=O)C2)C3(C)C)cc1 (stereo unspecified),0.0344
12,Cc1c(C(=O)OCCN2CCCCC2)oc2ccccc12,0.189
13,Cc1ccnc2c(N3C(=O)C4C5c6ccccc6C(c6ccccc65)C4C3=O)cccc12 (stereo unspecified),-0.78
14,COc1ccc(CNCCSc2nnnn2C)cc1OC,0.0427
15,Cc1cc(C(=O)N2CCN(c3ncccn3)CC2)c(C)o1,0.574
16,Cc1ccc(N2CCN(c3ccc(NCc4nc5ccccc5n4C)cc3)CC2)cc1,-0.26
17,C=CCN(c1cccc(C(F)(F)F)c1)S(=O)(=O)c1cccc(C(=O)OCC(=O)NC)c1,-0.13
18,Cc1cc(NC(=O)CSc2nnc(-c3ccco3)n2Cc2ccccc2)no1,-0.0382
19,CC(C)C(=O)NC(c1ccc([N+](=O)[O-])cc1)c1c(O)ccc2ccccc12 (stereo unspecified),-0.44
20,Nc1c(C(=O)NCc2ccccc2)nnn1Cc1cccc(Cl)c1,-0.134
21,COc1ccccc1N1CCN(C(=O)c2ccc3[nH]c4c(c3c2)CCCC4)CC1,-0.188
22,CC(=O)Nc1ccc(S(=O)(=O)N(CC(=O)O)Cc2ccccc2)cc1,-0.117
23,Cc1nnc(SCc2cnc(-c3ccc(C(C)C)cc3)s2)n1C,0.448

row,SMILES,z-score
1,O=C(NCc1ccccc1)c1cc(-c2cccs2)on1,-0.365
2,O=C(NCCNC(=O)c1cc(OCC(F)(F)F)ccc1OCC(F)(F)F)Nc1ccc(OC(F)(F)F)cc1,-0.136
3,CC(C)(C)n1nc2c(c1NC(=O)COc1ccc3ccccc3c1)CS(=O)C2 (stereo unspecified),0.226
4,CC1CCC(NC(=O)Cn2c(=O)[nH]c3ccsc3c2=O)CC1 (stereo unspecified),-0.274
5,O=C(Cc1c(O)c2ccccc2[nH]c1=O)N(Cc1ccccc1)Cc1ccccc1,-0.268
6,O=C(COc1ccc(Br)cc1)N(Cc1ccccc1)c1ccccn1,-0.518
7,Cc1ccccc1OCc1nnc(SCc2cc(=O)[nH]c3ccccc23)n1-c1ccccc1,0.00735
8,O=C(CC(c1ccc(F)cc1)c1ccco1)N1CCOCC1 (stereo unspecified),1.19
9,FC(F)(F)c1ccc(N=Cc2sc(N3CCOCC3)nc2-c2ccccc2)cc1,0.253
10,COc1ccc(N2C(=O)/C(=C/c3cccnc3)NC2=S)cc1,-0.439
11,Cc1cccc(-n2c(N)cc(=O)nc2SCC(=O)NC2CCCCC2)c1,0.281
12,COc1cc(-c2cc(N)n(S(=O)(=O)c3ccc(F)cc3)n2)cc(OC)c1OC,-0.632
13,O=C(O)C1C2C=CC(O2)C1C(=O)Nc1ccc(S(=O)(=O)Nc2ccccc2)cc1 (stereo unspecified),0.466
14,CCN(c1ccccc1)S(=O)(=O)c1cc(C(=O)Nc2ccc(F)c(F)c2)ccc1F,-0.178
15,COC(=O)c1[nH]c2ccc(C)cc2c1NS(=O)(=O)c1ccc(F)cc1,0.0029
16,CCCN(CCC)CC(=O)Nc1cccc2c1OCO2,-0.799
17,O=C(Nc1ccc(Br)cc1)c1ccc(F)c(S(=O)(=O)NCc2cccs2)c1,0.492
18,CCOC(=O)N1CCN(C(=O)CN(c2cccc(C)c2)S(=O)(=O)c2ccccc2)CC1,-0.274
19,CCOc1ccccc1Oc1c(C)oc2cc(OC(=O)N3CCOCC3)ccc2c1=O,-0.0886
20,COc1ccc(/C=N/NC(=O)Cn2cnc3ccccc3c2=O)cc1OC,0.0719
21,CCCCCNC(=O)c1cccnc1SCC(=O)Nc1ccccc1OC,-0.782
22,O=C(CCC(=O)Nc1ccccc1)NNC(=O)COc1ccccc1,-0.00186
23,Cc1ccc(S(=O)(=O)NC(N)=NCCc2ccc(Cl)cc2)cc1C,-0.0718

row,SMILES,z-score
1,CCOc1cc(Br)ccc1S(=O)(=O)NCc1ccccc1,-0.241
2,O=C1CC(N2CCC(c3nc4ccccc4[nH]3)CC2)C(=O)N1Cc1ccccc1 (stereo unspecified),-0.112
3,Cc1ccc(NC(=O)c2ccc(CSc3nnc(-c4ccncc4)n3C)cc2)cc1,0.0453
4,CC(C)CCNC(=S)Nc1ccc(F)cc1,0.97
5,O=C(Cc1cscn1)c1ccc(O)cc1O,0.188
6,c1ccc(C(c2nnnn2C2CCCC2)N2CCN(c3ccccc3)CC2)cc1 (stereo unspecified),0.0202
7,COc1nc(Nc2ccc([N+](=O)[O-])cc2)nc(NC(C)C)n1,-0.335
8,Cc1ccc2c(CC(=O)Nc3sccc3C(N)=O)coc2c1,-0.213
9,COc1ccc(OCC(=O)N2CC3(C)CC2CC(C)(C)C3)cc1 (stereo unspecified),-0.2
10,O=C(CCl)Nc1cccc(S(=O)(=O)N2CCCCCC2)c1,-0.426
11,CC(Sc1nnc(N)s1)C(=O)Nc1ccc(N2CCOCC2)cc1 (stereo unspecified),0.0274
12,CC(NC(=O)CN(C1CCCCC1)S(C)(=O)=O)c1ccccc1 (stereo unspecified),0.203
13,Cc1ccccc1Cn1c(CN2CCN(C(=O)c3ccco3)CC2)nc2c1c(=O)n(C)c(=O)n2C,0.062
14,COC(=O)CNc1c(-c2ccccc2)nc2ccc(Br)cn12,-0.131
15,c1ccc(SCc2nc(-c3ccccn3)no2)cc1,-0.32
16,CC(C)(C)c1ccc(C(=O)OCCNC(=O)c2c(Cl)nc3ccccn23)cc1,-0.742
17,O=c1c2c3c(sc2n2cnnc2n1-c1ccccc1)N(Cc1ccccc1)CCC3,-0.668
18,O=C(O)c1ccc(NS(=O)(=O)c2cc(Cl)ccc2Cl)cc1O,0.000578
19,O=C(COC(=O)c1c(Cl)cccc1Cl)Nc1cc(Cl)ccc1Oc1ccccc1,-0.584
20,CCCc1cc(C(N)=O)c(NC(=O)C2CCCO2)s1 (stereo unspecified),-0.179
21,O=C(c1ccc(N2C(=O)C3C4c5ccccc5C(c5ccccc54)C3C2=O)cc1)N1CCOCC1 (stereo unspecified),-0.32
22,Clc1cccc2sc(N3CCCC3)nc12,-0.417
23,O=C(c1cc2ccccc2oc1=O)N1CCN(c2ccc(N3CCOCC3)nn2)CC1,-0.215

row,SMILES,z-score
1,Cc1cc(Cl)ccc1Nc1ncccc1C(N)=O,-0.194
2,COc1ccc2[nH]c(C(=O)O)c(NS(=O)(=O)c3ccc(Cl)s3)c2c1,0.0834
3,CCOC(=O)c1c(C)n(-c2ccc(C)cc2)c2c(C(C(C)=O)C(=O)O)c(Br)c(O)c(O)c12 (stereo unspecified),-0.17
4,COc1ccccc1N1CCN(C(=O)CSc2nnc3c4ccccc4n(CC(=O)O)c3n2)CC1,-0.165
5,CC(=O)Nc1ccc(S(=O)(=O)NCc2ccc(C)cc2)cc1,0.235
6,COc1cc(C(=O)NCCC(=O)NCc2ccc3c(c2)OCO3)cc(OC)c1OC,-0.291
7,Cc1ccc2c(c1)-c1c(ssc1=S)C(C)(C)N2C(=O)c1ccco1,0.0281
8,C=CCSc1nc(N)c(C(=O)Nc2ccccc2)cc1C#N,-0.147
9,Cc1ccc(OCCCC(=O)NC(C)c2ccccc2)cc1 (stereo unspecified),0.104
10,Cc1ccc(S(=O)(=O)NC2c3cccc4cccc(c34)C2Sc2nc(C)cc(C)n2)cc1 (stereo unspecified),-0.244
11,COCCN1CCN(c2cc(-c3ccccc3)nc3cc(-c4cccc(F)c4)nn23)CC1,0.147
12,Cc1nnc(SCCn2c(N3CCCCC3)nc3c2c(=O)n(C)c(=O)n3C)s1,-0.0165
13,O=C(COC(=O)C1CC(=O)N(c2nc(-c3ccccc3)cs2)C1)c1ccccc1 (stereo unspecified),-0.136
14,COc1cccc(NC(=O)NCCCSC2CCCCC2)c1,active: 4.47
15,COc1ccc(-c2ccc(Nc3ccc(S(=O)(=O)N4CCCC4)cc3)nn2)cc1OC,-0.856
16,CCN(CC)CC#CC(C)(C)OC(C)=O,0.051
17,O=C(NCC12CC3CC(CC(C3)C1)C2)c1nn2cccnc2c1Cl,-0.402
18,Clc1cc(Cl)cc(Nc2ncn[nH]2)c1,-0.0414
19,COC(=O)c1ccc(C(=O)OC)c(NC(=O)c2cnc3n(c2=O)CCS3)c1,-0.415
